Laboratory results published in the supplement of paper PMC11417369.
This is one part of the list.

system: PfSIP2 AP2 domain 1 (GST-tagged); assay: gcPBM binding intensity (ln(normalized median fluorescence intensity)); higher = stronger DNA binding
Summary of the method: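 An Agilent 4 × 180k array carrying primer-extended double-stranded 36-bp intergenic genomic probes and negative controls received GST-tagged P. falciparum DNA-binding domains expressed in E. coli, about 25 μg on average, for 1 h. The binding buffer contained 1× PBS, 1% milk, 0.2 mg/ml BSA, 0.5% salmon testes DNA and 0.03% Triton X-100. Binding intensity is the top Masliner-normalised natural-log median intensity across replicate spots of either probe orientation, read after Alexa488 anti-GST antibody staining and a 488 nm scan.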

| Sequence | gcPBM binding intensity (ln) |
| --- | --- |
| CTAATGATCATATATACACACACACTAATAAAAAAA [CACACA_site9329] | 7.11 |
| AAAGAATTTGCATATACACACAAAAAGATATATACA [CACACA_site6318] | 6.9 |
| CATAATACAGATAACACACACAATTATACATAAAAT [CACACA_site5742] | 7.07 |
| AGGAGGTCAGTTCACAGTACCCAGGAAATCTACGGA [XGTACX_site2552] | 6.52 |
| AAAAATAAAATAAAGAAGGAAAATAAAAAAATAAGG [CACACA_negctrl_site1811] | 7.3 |
| AAACATAAGAGACACACACACATATATAAATAAATA [CACACA_site7674] | 7.14 |
| AATTTCATAAATATAACTGAGAATAAATAAACAAAG [GTGCAC_negctrl_site146] | 7.18 |
| CCTGTAAATAAATATAAATACATATTTCTAATATAT [GTGCAC_negctrl_site21] | 6.96 |
| TTTCAAAAAAATAATGTGCACATTAGAAAATAAATA [GTGCAC_site9416] | 8.53 |
| ACCTCATAATATTTAACACACAAAATTAAATGTATG [CACACA_site6898] | 7.13 |
| ACATATATTTAAAAATGTACTTACATATATTTTTTA [XGTACX_site6050] | 6.96 |
| GAAGTATTTATTTATGCATGCAAATATACAAAAAAA [TGCATGCA_site975] | 7.2 |
| TTTTATACATATTTTACACACTAAAATATACATATA [CACACA_site324] | 7.23 |
| TTATGTTGTAAATGCACACATACATAAACTCAGTTT [CACACA_site5639] | 7.71 |
| ATAAAATAAATATTTTGTTATTTATTTAATCTAATA [XGTACX_negctrl_site404] | 6.62 |
| TAAATATTTTTAGATGCATGCAATAATTACCCAAAG [TGCATGCA_site636] | 7.36 |
| TTATTATTATTACTAGTGCATTAATTATATATGTAA | 8.8 |
| TTTTTTTTTTCTGAAAGTACTAATTTCCTGGAGGAA [XGTACX_site759] | 6.78 |
| ATATTTCTGTCAAGCACACATAATATTAAAATATGT [CACACA_site4330] | 7.04 |
| ATTTAGAAAAATAAAACACACATATAGATGTAAATA [CACACA_site7853] | 6.81 |
| TCATATTATAATGTGAGTACATATAATAAATAAGTT [XGTACX_site2470] | 7.03 |
| ATGTTTGTCTATAGCTGTACCTATTTATAAAACGTA [XGTACX_site7157] | 7.03 |
| TTAATATGATATATATATATATATATATATATATAT [CACACA_negctrl_site683] | 9.01 |

| Sequence | gcPBM binding intensity (ln) |
| --- | --- |
| GTAAAAATTTTAAATACATGCAAGCGATTAATATGA [TGCATGCA_site80] | 6.83 |
| GTATATATGTATATATGTACATATATACATTTTGTT [XGTACX_site7320] | 7.35 |
| CGTTAAAGGGAATGTATACACACGTTTCTCTATGTT [CACACA_site1198] | 6.82 |
| TTAAATAATATTAAATGTACATATTATTATGATATA [XGTACX_site6189] | 6.89 |
| TATATATTTAACAATCGTACATATTTACAAATATAA [XGTACX_site2131] | 6.88 |
| TTATAACAACTGGAATGATTAACAATAAATATTAAA [CACACA_negctrl_site1723] | 6.72 |
| AGGAGACTTAAAAAAAGTACAAAAAAAAAAAAAAGC [XGTACX_site1576] | 7.23 |
| TATACATATATAAATGCATGTTGATATTAATAGTTA [TGCATGCA_site639] | 7.03 |
| ACAGAAAAAAAACACACACACATAATATACATACAT [CACACA_site1932] | 7.15 |
| TATTTTTTTTTCTTTTTATATATAATAATCTTCATT [GTGCAC_negctrl_site80] | 6.86 |
| TTTTTTTTTTTTTTTTGTACGTATCAAAAAATTTGT [XGTACX_site1023] | 7.19 |
| AAAAATAAATTTAGTTGTACTTTATTATTTTAAATA [XGTACX_site3067] | 6.83 |
| AATCAATAAATAAAAACATGCATATATATATATATA [TGCATGCA_site438] | 9.52 |
| CATTAATAAAAAAAAAGTACAAAAAATATATATATT [XGTACX_site2091] | 7.1 |
| AAAATAAAAATATTCACACATACAAAAATTATACAA [CACACA_site5136] | 6.99 |
| ATTTTTTTACTGTAACCATATTTTTCCCTTTTATTC [CACACA_negctrl_site1143] | 6.94 |
| ATAATATATATATATAGTACATATATATAATATTCT [XGTACX_site2445] | 7.07 |
| AAGAAAAACTTTACGTGTACCAAACATCCTGCCAAC [XGTACX_site598] | 6.97 |
| ATAGACAGCGCACAAACACACAAACACCCACCCACA [CACACA_site8043] | 7.3 |
| AGTGATACTAATTTTTGTACGCATAAAAGAATATTC [XGTACX_site6055] | 6.97 |
| TATATTGATGATGATAGTACGTATGATTAGAAAAAA [XGTACX_site8989] | 7.27 |
| AAAAAAAAAAAAATACGTACATACATACCTACATAT [XGTACX_site233] | 7.21 |
| TATATATATATGTGTACACAATTTATCTGTATTTAT [CACACA_site5945] | 9.28 |

| Sequence | gcPBM binding intensity (ln) |
| --- | --- |
| GAATAATATATATATTGTACTTTTTATTTATATTAT [XGTACX_site3180] | 7.16 |
| AAAATATAATATAATGCACACATAAAACAAAAAAAA [CACACA_site8989] | 7.38 |
| AAAAAAAAATTAATATATAAAAGGATATATATATAT [GTGCAC_negctrl_site449] | 8.95 |
| ATATATATATTTATATGTACGAAATATAAAAAAAAA [XGTACX_site5054] | 8.15 |
| CTTTTTTTTTTTTTTACACACCCAAATCACATACAT [CACACA_site4051] | 7.47 |
| ACATATAAATATATTACACACACACTAAAAAAATAA [CACACA_site6209] | 7.09 |
| CACCTTATAAATACTGCACACATAAAATATATATTA [CACACA_site8908] | 7.61 |
| CTTATCAAAAAAAAAGCATGCCACAGGCAAAAGGTA [TGCATGCA_site574] | 6.79 |
| ATATATATATATATATGTACATATATACATATACAT [XGTACX_site2350] | 9.39 |
| ATATAAAAATGTGTATGTACACACTTTATTTTTAAT [XGTACX_site5272] | 7.02 |
| ATCCTTTATTTTTTTTGTACATAAAAATAACTCGAG [XGTACX_site3885] | 7.27 |
| TTTTTCTATAAAAAATGTACATATTTTATGAAGGAA [XGTACX_site821] | 7.32 |
| AAATTACAAATACAAACACACAAATGTTTTTCATTC [CACACA_site3552] | 6.76 |
| TTAAAAAACCTTAGATGTACAGTTATATATAAAATA [XGTACX_site6688] | 7.01 |
| TGGAATAATACGCGTACACACATATATATATTAATA [CACACA_site131] | 7.29 |
| TGAACACACGAGCACACACACACATCTATATTTATA [CACACA_site6607] | 7.22 |
| AGGTATCAAAAATATGCATGCAATATTTTATGTAAT [TGCATGCA_site1055] | 6.98 |
| TTAACATACACTCTAGTGCATATATATAACAAAATA [GTGCAC_site9724] | 8.23 |
| ATTAAAACACAATATTCACACATGTATATTATATAT [CACACA_site5191] | 6.95 |
| AATTTAAATCTTCAAAGTACTAAAAAAAAAAATAAT [XGTACX_site8566] | 7.03 |
| ATCATATTTATATTGGTGCATTATGCATGAAATTTA [GTGCAC_site9571] | 9.94 |
| AAACGATTAATGTGTACACACATAGTTATAAACATA [CACACA_site7073] | 7.05 |
| TTACACATGTATTTGGTGCATGTTGTTAACAAAATA | 9.57 |

| Sequence | gcPBM binding intensity (ln) |
| --- | --- |
| TATGCTTTGATGAAGACACACATATAGAAGCGTATT [CACACA_site1925] | 6.91 |
| CGCCCACAGATATATACACACATATATAAATAAATA [CACACA_site6877] | 7.43 |
| AAAACTATTTCTTTCAGTACATATTTGGACTTATAT [XGTACX_site4977] | 6.95 |
| TACTTTTATAAAAATTGTACAAAAAAAAAAAAAAAA [XGTACX_site2266] | 7.12 |
| TATGTTATAAAATATATATTATAATATGTATATATA [XGTACX_negctrl_site233] | 6.98 |
| ATAATAAGCAGACACACACACACAAAAAAAAAAAAA [CACACA_site6477] | 7.05 |
| ATATAAATTTAATACACACCCAAAAAAAAAAAAAAA [CACACA_site3750] | 6.89 |
| TAAATAAATACATACACACACATACAGATATATATA [CACACA_site5690] | 7.02 |
| TATTTTAACATGTTTTCAAAAATAAAACATATAAAT [CACACA_negctrl_site1598] | 6.71 |
| TAATATGACATAAGGGGTACTATATATATATATATT [XGTACX_site386] | 7.46 |
| AAACATTTACTATATTGTACTTAAGATCTTATCGTA [XGTACX_site3919] | 6.99 |
| GAACTTTACAACCCAACACACAAAAAAGAAAAGAAA [CACACA_site1717] | 7.21 |
| ATTGGTGTATGTTTATGTACTTATCACAATTATGAA [XGTACX_site7055] | 6.97 |
| AATAGGAAAAGAAAAGCACACACATAAATAAATATA [CACACA_site8062] | 6.91 |
| ATATGTTCATTTAAAAGTACTTAATATAACATTTTT [XGTACX_site3332] | 7.08 |
| TCAAATTACTAAAATACACACATATTATAGATATAT [CACACA_site7233] | 6.83 |
| TGTATATATAATAAAACACACATTTTTAATGTGCTC [CACACA_site1437] | 6.66 |
| GTTTTATAAAAAGGCGCACACATATACATAAATATA [CACACA_site1864] | 7.55 |
| TAAATACAAAAATGCACACGAAAAGTAATATATATA [CACACA_site6151] | 8.26 |
| GATAAAGTACTTTATACACACAAATATTTATATATA [CACACA_site3974] | 7.17 |
